Source: PubChem BioAssay AID1508624 (National Center for Advancing Translational Sciences (NCATS), 2021)
Screen size: about 48,000 compounds; about 120 (0.25%) were called active. Inconclusive results (about 4%) are left out. The call rests on the fitted dose curve; in most records, active means well fitted activation curve with a large enough effect; inconclusive means small, poorly fitted or top-dose-only effect, or another doubt; inactive means no such curve, though single readings can be large or run the other way. The list shows a part of the results.

Experiment: Primary qHTS for Identification of Small Molecule Activators of Huntingtin-Antisense Promoter Activity; further: nearly all actives have a fitted effect of over 55% in size
Details: HEK293 HTT-AS promoter firefly luciferase reporter, 24 h; series mostly up to 57.5 µM; activity change, positive = activation: at the top concentration
Outline: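 HEK293 cells carrying firefly luciferase reporters were seeded at 2,500 per well in Opti-MEM and cultured for 24 h. They were then treated with compounds at up to 57.5 uM final for 24 h at 37 degrees C before Dual-Glo luminescence readout.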

Activity change, positive = activation, inactive:
COC(=O)c1ccc(NC(=O)CSc2nc(=O)n(Cc3ccco3)c3c2CCC3)cc1 -28.8%
CN1C(=O)CC(C)(c2ccccc2)C1=O (centres undefined) -10.5%
COc1cc(C(=O)N(Cc2ccc(C(C)C)cc2)C2CCS(=O)(=O)C2)cc(OC)c1OC (centres undefined) -4.54%
COc1cc(NC(=O)c2nnn(Cc3ccc(F)cc3)c2N)cc(OC)c1 0%
CCOC(=O)c1cnn(-c2ccc(OC)cc2)c1C1CCN(C(=O)OC(C)(C)C)CC1 -21.9%
Cc1cccc(-c2nc(SCc3ccc(Br)cc3)n3[nH]c(=O)cc3n2)c1 9.01%
CSc1nc2sc3c(c2c(=O)n1-c1ccc(C)c(Cl)c1)CCN(C(C)=O)C3 -10.4%
Cc1ccc(N2CC3=C(C2=O)C(c2ccc(Br)cc2)NC(=O)N3C)cc1 (centres undefined) -13.6%
CC(C)c1ccc(NS(=O)(=O)c2ccc3[nH]cc(C(=O)NC4CCCC4)c(=O)c3c2)cc1 -11.9%
O=C(Cn1c(=O)oc2cc(S(=O)(=O)N3CCCCCC3)ccc21)Nc1cccc(C(F)(F)F)c1 -38%
CCn1c(=O)cc(SCC(=O)Nc2ccc(C)c(F)c2)c2ccccc21 0%
O=C1Cc2cc(S(=O)(=O)N3CCN(c4ccccc4)CC3)ccc2N1 -16.6%
Cc1ccccc1Nc1sc(C(=O)c2ccc3c(c2)OCO3)c(N)c1S(=O)(=O)c1ccccc1 10.3%
Cc1ccc(-c2nc(C(=O)NCc3ccc(Cl)cc3)c3n2CCCCC3)cc1 -42%
CCC(=O)N1CCc2cc(Br)cc(S(=O)(=O)NCCc3ccc(OC)c(OC)c3)c21 -11.9%
CC(=O)C1=C(OC(=O)C(C)C)c2ccccc2S(=O)(=O)N1Cc1ccccc1 -11.2%
O=C(NCCCc1nc2ccccc2n1Cc1ccccc1Cl)C1CCCCC1 -34.3%
Cc1[nH]n2c(=O)cc(-c3ccccc3Cl)nc2c1-c1ccccc1 -41.5%
CCN(CC)CCNC(=O)c1ccc(NC(C)=O)cc1 -12.9%
Cc1cc(NC(=O)CN2C(=O)C(C)(C)c3ccccc32)ccc1Br -14.6%
Cc1ccc(CNC(=O)CC2Oc3ccccc3NC2=O)cc1 (centres undefined) -0.208%
CCN(C(=O)CSc1nc2ccccc2n1CC(=O)Nc1cccc(C#N)c1)c1ccccc1 -44.5%
CCOC(=O)C1CCCN(C(=O)Cn2ncc3c([nH]c4ccccc43)c2=O)C1 (centres undefined) -15.1%
COc1ccc(C(CC(=O)Nc2ccc(F)c(Cl)c2)N2Cc3ccccc3C2=O)cc1OC (centres undefined) -28.8%
CC1CCN(S(=O)(=O)c2ccc3c(c2)N(CC(=O)NCc2ccccc2)C(=O)CO3)CC1 -29.8%
COC(=O)c1ccc(Cl)cc1NC(=O)N1CC=C(c2c[nH]c3ccccc23)CC1 -14.8%
CC[C@H]1OC(=O)[C@H](C)[C@@H](O[C@H]2C[C@@](C)(OC)[C@@H](O)[C@H](C)O2)[C@H](C)[C@@H](O[C@@H]2O[C@H](C)C[C@H](N(C)C)[C@@H]2O)[C@](C)(O)C[C@@H](C)CN(C)[C@H](C)[C@@H](O)[C@]1(C)O -7.83%
COc1ccc(N2CCN(C(=O)c3cc4c(-c5ccccc5F)nn(C)c4s3)CC2)cc1 -34%
COc1ccc(OC)c(NC2=C(c3ccccc3)C(=O)c3ccccc32)c1 -34.9%
O=C(Cn1ncc2c(=O)oc3ccccc3c21)Nc1cc(F)ccc1F -16.6%
O=C(CSc1nc2nccnc2c(=O)n1CCc1c[nH]c2ccccc12)Nc1ccccc1F -21.9%
Oc1ccccc1Nc1nc(-c2ccccc2)c2cc(Cl)ccc2n1 -14.9%
Cc1cccc(OCCCC(=O)Nc2sc3c(c2C(N)=O)CCC(C)C3)c1 (centres undefined) -7.09%
CCN(CC)c1nc(-c2ccc(C(C)(C)C)cc2)nc2ccccc12 -10% [at 11.5 µM, percent change from vehicle, -100% = no light]
COc1ccc2c(CNCC(C)c3ccccc3)c(C(=O)O)n(Cc3ccc(F)cc3Cl)c2c1 (centres undefined) -13.3%
COc1ccc(/C=C(\C#N)c2nc(-c3cc(Cl)ccc3OC)cs2)cc1 -10%
O=C1CS(=O)(=O)C2(C(=O)N(Cc3cccc(F)c3)c3ccccc32)N1c1ccccc1 (centres undefined) -34.2%
CCOc1ccccc1-n1ccnc(NCc2ccc(F)cc2)c1=O -13.7%
Cc1cccc(NC(=O)Nc2nnc(N(C)C3CCCCC3)s2)c1C -3.47%
O=S(=O)(NCCNCC=Cc1ccc(Br)cc1)c1cccc2cnccc12 -27.9%
Cc1nn(CC(=O)NCc2ccco2)c(=O)c2cc3ccccc3n12 -4.38%
CCc1ccccc1N(C)C(=O)c1cn(CC(C)C)c(=O)c2cc(OC)c(OC)cc12 -25.5%
O=C(CCC(=O)N1Cc2ccccc2Oc2ncccc21)Nc1ccc(Cl)cc1 -33.1%
CN(C)CCNC(=O)C1CCN(c2nc3ccccc3[nH]2)CC1 -4.3%
COc1ccc(NC(=O)Nc2nnc(N3CCCCCC3)s2)cc1 4.8%
Cc1ccc(NC(=O)c2nc(S(C)(=O)=O)ncc2N(Cc2ccccc2)Cc2ccco2)c(C)c1 -10.7%
Cc1c(NC(=O)c2cc([N+](=O)[O-])ccc2N2CCOCC2)cccc1-c1nc2ccccc2o1 -20%
Cc1nn(-c2ccc(F)cc2)c(-n2cccc2)c1C(=O)N1CCN(c2ccc(F)cc2)CC1 -34.2%
CNC[C@H](O)c1cccc(O)c1
COc1ccc(NC(=O)c2nnn(Cc3ccccc3C)c2N)c(OC)c1 -5.86%
Cc1ccc(C(=O)Nc2c(-c3ccccc3)nc3ccccn23)cc1C -14%
Cc1ccc(CNC(=O)Cn2c3ncccc3c(=O)n2-c2ccccc2)cc1 -22.1%
O=C(CSc1ccc(-c2ccccn2)nn1)Nc1ccc(F)c(F)c1 -20%
COc1cc(OC)c(NC(=O)c2c(C)oc3ncn(C)c(=O)c23)cc1Cl -5.06%
CCOc1ccc(CCNC(=O)CCc2c(C)nc3c(c(C)nn3-c3ccccc3)c2C)cc1OCC -36.1%
CCOc1ccc(NC(=O)c2ccc(NC(=O)CCS(=O)(=O)c3cccs3)cc2)cc1 -21.6%
Cc1ccc(C2CC(=O)N(Cc3ccccc3F)c3c2c(C)nn3-c2nc(C)cc(C)n2)cc1 (centres undefined) -13.9%
C[C@]12CCC(=O)C=C1CC[C@H]1[C@@H]3CC[C@](O)(C(=O)CO)[C@@]3(C)C[C@H](O)[C@@]12F -11.1%
CCn1cc(C(=O)N2CCN(c3cccc(Cl)c3)CC2)c(=O)c2cc(S(=O)(=O)N3CCOCC3)ccc21 -10.4%
